From the supplement of paper PMC10126150
Values marked as one replicate rest on one cluster of the flow cell; about a third of the high ones do not repeat.

Each sequence was assayed on ATP (assay: switch fluorescence ratio, 500 uM ATP over buffer (Cy3 cluster intensity, sum of 5 cycles each) (fold (ratio)); higher = stronger signal-on switching upon ATP binding; sequences stand for … in TCGTCGGCAGCGTCAGATGTGTATAAGAGACAGTTTTTTTTTTTTTTTTTTTTTTTTT…TC). Conditions: aptamer strand: ATP DNA aptamer (quencher-CACCTGGGGGAGTATTGCGGAGGAAGG + anchor), 100 nM annealed; ATP concentration: 500 uM; one replicate.
How it was run: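 Exposure to 500 uM ATP lasted 15 min at 22 °C before imaging, and a selection-buffer image was taken beforehand, for Cy3-labelled switching-strand clusters on a modified Illumina MiSeq flow-cell annealed to 100 nM quencher-labelled ATP aptamer. Five buffer/ATP cycles were run with NaOH stripping and re-annealing between them. The fluorescence ratio per cluster is summed target-cycle over summed buffer-cycle Cy3 intensity, averaged per switch-domain sequence. Clusters outside 100-1000 RFU were excluded.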
Work on GAACGATCAC yielded a switch fluorescence ratio of 1.4. TCGCATCTGT was tested, and the switch fluorescence ratio was 1.05. TCGATGATTG showed a switch fluorescence ratio of 0.991. Sequence CAAGGAGCT has a switch fluorescence ratio of 0.958. TGGTGAAAG was tested, and the switch fluorescence ratio was 0.966. For GATGCCATT, the switch fluorescence ratio was 0.982. In the case of TGGGTGATTG, the switch fluorescence ratio is reported as 1.02. CCCTTCTCAG was tested, and the switch fluorescence ratio was 1.13. Work on ATCATCGGCC yielded a switch fluorescence ratio of 1.04. CAGTGGAAGT was tested, and the switch fluorescence ratio was 0.983. With GTGTGTACCG the switch fluorescence ratio was 0.981. GTCGTTTAGA was tested, and the switch fluorescence ratio was 0.923. In the case of GAGGAGGGAT, the switch fluorescence ratio is reported as 0.974. CGTGTTCCCG was tested, and the switch fluorescence ratio was 0.944. For TAGGCGATGA, the switch fluorescence ratio was 1.01. Work on CTTCATAATG yielded a switch fluorescence ratio of 1.04. For GGCGGACGGG, the switch fluorescence ratio was 0.997. ACGCAGTGCT was tested, and the switch fluorescence ratio was 1.72. GTAAATAGAA gave a switch fluorescence ratio of 1.01. In the case of CTCGACAATA, the switch fluorescence ratio is reported as 4.42. With ACTTTCTATT the switch fluorescence ratio was 1.01. In the case of CTACGTCTAG, the switch fluorescence ratio is reported as 1.04. Work on TGATCGGCCT yielded a switch fluorescence ratio of 0.995. GCTACGTATT gave a switch fluorescence ratio of 1.2. AATCAGTCGT gave a switch fluorescence ratio of 0.987. For ATAACATGGT, the switch fluorescence ratio was 1.06. In the case of GCTTCGGCTC, the switch fluorescence ratio is reported as 1.02. Sequence GCCGGCGTAG has a switch fluorescence ratio of 1.02. ACAGCTGGGC showed a switch fluorescence ratio of 0.98. GGGTCAAGAG gave a switch fluorescence ratio of 1.02. With GGGTATACGA the switch fluorescence ratio was 1.02. Sequence CTGTTCCTGT has a switch fluorescence ratio of 1.12. For TCGGAGGTCT, the switch fluorescence ratio was 1.02. With TTTCCTAGTG the switch fluorescence ratio was 0.987. TTCATGACAA showed a switch fluorescence ratio of 1.09. Sequence TGAGTCGTAA has a switch fluorescence ratio of 1.03. GCCCGACAGA was tested, and the switch fluorescence ratio was 1.06. With ACGCTCGGAA the switch fluorescence ratio was 1.6. CGAGCTGGCT gave a switch fluorescence ratio of 1.04. For ACTAACAATA, the switch fluorescence ratio was 1.11. In the case of TGCGACTGTT, the switch fluorescence ratio is reported as 0.919. With GGAGTACCGT the switch fluorescence ratio was 0.995. GGGCTACTGA gave a switch fluorescence ratio of 0.994. With ACTGGTAAGA the switch fluorescence ratio was 0.994. With AAATATTATC the switch fluorescence ratio was 1.04. Sequence GATCTGCTGC has a switch fluorescence ratio of 1.14. TAGCCTT gave a switch fluorescence ratio of 1.1. Sequence ATCCTTGTA has a switch fluorescence ratio of 1.01. In the case of CATATAAGGC, the switch fluorescence ratio is reported as 0.865. GCGTATTAAA was tested, and the switch fluorescence ratio was 1. With TATCGTGCC the switch fluorescence ratio was 0.979. GTTAGGCGGG gave a switch fluorescence ratio of 1.14. In the case of TTGTGATCTG, the switch fluorescence ratio is reported as 1.02. GTACTCTTTT gave a switch fluorescence ratio of 0.97. In the case of TGGAATGGTT, the switch fluorescence ratio is reported as 1.03. Work on GCTCTTTCTG yielded a switch fluorescence ratio of 1.03. TTGTTACAGT gave a switch fluorescence ratio of 1.05. In the case of GTCGTTCATG, the switch fluorescence ratio is reported as 0.995. Work on AAGCGCTCTG yielded a switch fluorescence ratio of 0.956. AAGCGCTGGA was tested, and the switch fluorescence ratio was 1.04. With TCCCGGTCGC the switch fluorescence ratio was 1.02. Work on ATCTTTCAAC yielded a switch fluorescence ratio of 0.976. TTAAATAGG showed a switch fluorescence ratio of 0.988. For GATGTGCGCG, the switch fluorescence ratio was 1.11. TCGAGAGCTG was tested, and the switch fluorescence ratio was 1.03. ATAGATGG was tested, and the switch fluorescence ratio was 1.1. Sequence CCTGAGGTCA has a switch fluorescence ratio of 0.982. With AAAGTGTGGC the switch fluorescence ratio was 1.05. In the case of ATCCTCTAGT, the switch fluorescence ratio is reported as 1.01. GTCCTGATCA gave a switch fluorescence ratio of 1.01. For ACCCTTGATG, the switch fluorescence ratio was 1.03. With AATTCGGCCG the switch fluorescence ratio was 1.03. Work on TATTGCGTAC yielded a switch fluorescence ratio of 2.34. CCAAAAGTAG was tested, and the switch fluorescence ratio was 1.08. Sequence AATGTAGTTC has a switch fluorescence ratio of 0.99. AGTGCCAGAT was tested, and the switch fluorescence ratio was 0.992. GAGCTAGGTG was tested, and the switch fluorescence ratio was 1.24. For TAGTCGGGTA, the switch fluorescence ratio was 1.03. Work on AGGACAGGGA yielded a switch fluorescence ratio of 0.959. With ACGCGGGGT the switch fluorescence ratio was 0.985. In the case of TCTAGGGGCA, the switch fluorescence ratio is reported as 0.947. CTTTATGGCA showed a switch fluorescence ratio of 0.995. Work on CATTCCAGG yielded a switch fluorescence ratio of 1.38. For ACAGAATCGC, the switch fluorescence ratio was 1.02. Work on CCAGCTTGGG yielded a switch fluorescence ratio of 0.992. Sequence CGGTTGCCGG has a switch fluorescence ratio of 1.02. AGTTATGCCA gave a switch fluorescence ratio of 0.968. Sequence ATGTGGTTA has a switch fluorescence ratio of 0.972. With TCCAATTCGG the switch fluorescence ratio was 1. Sequence AACGCAGAGC has a switch fluorescence ratio of 1.19. CGTGTACTAG gave a switch fluorescence ratio of 0.959. CCTGACTCAG gave a switch fluorescence ratio of 1.47. Work on GGGTCATAGG yielded a switch fluorescence ratio of 1. GCATGATGC showed a switch fluorescence ratio of 0.994. GTAGTAGCAG showed a switch fluorescence ratio of 1. With TCGTTCCCAG the switch fluorescence ratio was 1.04. With TAGCGCGCGT the switch fluorescence ratio was 1.02. Sequence CCGGTACTCA has a switch fluorescence ratio of 3.21. For AGGGGACAGC, the switch fluorescence ratio was 1.01. Sequence CGTGTCGCGG has a switch fluorescence ratio of 0.956. For GTGTTAGGTG, the switch fluorescence ratio was 1.11. Sequence TCAGGATATC has a switch fluorescence ratio of 1.02. GCTGGGTT was tested, and the switch fluorescence ratio was 0.968. GTTTTCGTCC was tested, and the switch fluorescence ratio was 0.983. AAGATTCAGC was tested, and the switch fluorescence ratio was 0.986. GAGTCATTTG gave a switch fluorescence ratio of 1. CAAAATAGAT showed a switch fluorescence ratio of 1.01. Sequence TATATCGCTG has a switch fluorescence ratio of 1.06. Work on TCAATTCAGT yielded a switch fluorescence ratio of 0.965. TGTTTAACGT gave a switch fluorescence ratio of 1.01. AACATTACAT was tested, and the switch fluorescence ratio was 1.12. With AAGCTGCTT the switch fluorescence ratio was 0.998. With AGTCGCCCGT the switch fluorescence ratio was 0.996. With TTACAGGGCA the switch fluorescence ratio was 1.02. In the case of ACTTAGAGAT, the switch fluorescence ratio is reported as 1.01. For CAGGGAAGAA, the switch fluorescence ratio was 0.976. TACAGTGC showed a switch fluorescence ratio of 0.98. TGGTACGTGT was tested, and the switch fluorescence ratio was 0.997. With AATCCGAAAG the switch fluorescence ratio was 1.23. Sequence TGGAGCCTCA has a switch fluorescence ratio of 1.02. In the case of AGGGTCCGTC, the switch fluorescence ratio is reported as 0.983. ATCATGTTG was tested, and the switch fluorescence ratio was 0.972. For CTAGTAAGAG, the switch fluorescence ratio was 0.967. For AAAGGACACT, the switch fluorescence ratio was 0.983. For CAAGGGAATA, the switch fluorescence ratio was 1.02. Work on TGTAGTGTA yielded a switch fluorescence ratio of 1.08. With CGGGGATAGT the switch fluorescence ratio was 1.06. In the case of TTCCGCATCA, the switch fluorescence ratio is reported as 3.58. Sequence TCAGGTAACT has a switch fluorescence ratio of 1.05. For TCCCGGGATT, the switch fluorescence ratio was 1.09. Work on CCACCAGGTA yielded a switch fluorescence ratio of 1.23. Sequence AGGTTTCACG has a switch fluorescence ratio of 0.994. For AGTACAGTAC, the switch fluorescence ratio was 1.05. In the case of CGATCATAGA, the switch fluorescence ratio is reported as 1.03. Work on TCGTCGTCTT yielded a switch fluorescence ratio of 0.98. CCTTAGGGG gave a switch fluorescence ratio of 1.06. In the case of CGATATATCG, the switch fluorescence ratio is reported as 1.02. In the case of ACATGAAGGC, the switch fluorescence ratio is reported as 0.927. In the case of GTTAGGGTGT, the switch fluorescence ratio is reported as 1.08. For ATGAGGTCCT, the switch fluorescence ratio was 0.998. In the case of GCAAAAGCGT, the switch fluorescence ratio is reported as 0.976. CCTCAAATAA gave a switch fluorescence ratio of 4.08. GTGTATTT gave a switch fluorescence ratio of 0.98. With TCTTTCGAGG the switch fluorescence ratio was 1.01. CACTGACCCC was tested, and the switch fluorescence ratio was 1.26. With CACAAGGGGG the switch fluorescence ratio was 0.981. ATCACGGGAC showed a switch fluorescence ratio of 1.31. Sequence AAAAAACTGA has a switch fluorescence ratio of 1.02. For AGTTGCATG, the switch fluorescence ratio was 0.943. TACCGGACGC showed a switch fluorescence ratio of 1.82. TTGGTCTGT was tested, and the switch fluorescence ratio was 0.998. Sequence TACGTTCCAG has a switch fluorescence ratio of 1.03. For TAATGTGAGT, the switch fluorescence ratio was 0.993. ATCGTTGAGT was tested, and the switch fluorescence ratio was 0.981.
